# About 6,900 (2%) of roughly 340,000 compounds were called active. No stated cut-off is given here; in the data, active means inhibition above about 30%; inactive means below that, where a call was filed. The list shows a part of the results, in another mix than the full data. The source gives no active or inactive call for entries shown without one.
# Biological target: D(2) dopamine receptor (Homo sapiens) (UniProt P14416)
# Test: HTS Assay for Allosteric Antagonists of the Human D2 Dopamine Receptor: Primary Screen for Antagonists; further: 0% is about no effect
# Conditions: HEK293 TREx D2 cells, calcium flux, dopamine EC80; at 10 µM; stronger effect = higher value
# Summary of the method: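 Calcium mobilization kinetics were recorded at 1 s intervals in tetracycline-induced HEK293 T-REx D2 cells, first for 180 s after compound addition and then 180 s after EC80 dopamine.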
# Sequence of UniProt P14416 (P14416 whole entry, looked up): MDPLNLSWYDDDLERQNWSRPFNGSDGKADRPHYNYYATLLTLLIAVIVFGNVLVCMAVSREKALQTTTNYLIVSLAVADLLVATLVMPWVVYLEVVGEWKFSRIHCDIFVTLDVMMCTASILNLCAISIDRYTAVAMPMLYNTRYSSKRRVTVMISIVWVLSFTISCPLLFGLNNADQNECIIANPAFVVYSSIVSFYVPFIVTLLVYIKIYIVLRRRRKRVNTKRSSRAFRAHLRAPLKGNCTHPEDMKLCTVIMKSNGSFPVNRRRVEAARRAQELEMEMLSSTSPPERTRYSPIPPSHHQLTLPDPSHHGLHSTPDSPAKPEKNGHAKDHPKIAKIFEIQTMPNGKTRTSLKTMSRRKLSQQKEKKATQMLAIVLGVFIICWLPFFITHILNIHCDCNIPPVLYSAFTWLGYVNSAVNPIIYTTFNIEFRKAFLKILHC
row,SMILES,inhibition
1,O=c1c(S(=O)(=O)c2cccc(Cl)c2)cn(Cc2ccccc2)c2cc(N3CCOCC3)c(F)cc12,-8.83%
2,Cc1cccc(NC(=O)C(NS(=O)(=O)c2ccc3c(c2)oc(=O)n3C)C(C)C)c1 (stereo unspecified),3.3%
3,Cc1ccc(-n2nc(C(=O)N3CCN(c4cc(Cl)ccc4C)CC3)c3c4ccccc4n(C)c3c2=O)cc1,-3.89%
4,Cc1ccc(Cl)cc1-n1ncc2c(Nc3cccc(C)c3C)ncnc21,20.7%
5,O=C(c1ccc(CSc2nc3ccncc3n2Cc2ccccc2)cc1)N1CCCCCC1,0.282%
6,Cc1ccc(NC(=O)Cn2ccn(-c3ccc(F)c(F)c3)c(=O)c2=O)cc1C,10.8%
7,COc1ccccc1CCNS(=O)(=O)c1ccc(N2CCCCS2(=O)=O)cc1,-10.5%
8,COc1ccc(NC(=O)CCc2nnc3n(CC(C)C)c(=O)c4ccccc4n23)cc1,-7.54%
9,CCc1ccccc1NC(=O)C1CCCN(c2ncnc3onc(C)c23)C1 (stereo unspecified),4.93%
10,Cc1nc2ccn(Cc3ccco3)c(=O)c2cc1C(=O)N1CCN(c2ccccc2)CC1,-5.29%
11,Cc1ccc(C2c3[nH]c4ccccc4c3CCN2C(=O)CCC2CCCC2)cc1 (stereo unspecified),-24.2%
12,COc1ccc(CNC(=O)c2ccc(CS(=O)Cc3ccccc3Cl)o2)cc1 (stereo unspecified),-19.1%
13,COc1ccccc1NC(=O)C1=C(C)Nc2nc(SCc3ccccc3F)nn2C1c1cccs1 (stereo unspecified),3.49%
14,O=C(COCc1cc(-c2ccc3c(c2)OCO3)on1)N1CCN(c2ccccc2)CC1,-4.9%
15,Cc1ccc(C(=O)Nc2cccc(C(F)(F)F)c2)cc1Nc1cncnc1,active: 33.2%
16,Cc1ccc(S(=O)(=O)NCCc2cn3ccsc3n2)cc1,-18.5%
17,CCC(CC)C(=O)Nc1nc2c(s1)CC(C)CC2 (stereo unspecified),4.75%
18,COc1ccc(-n2nnnc2C2CCN(S(=O)(=O)c3ccc(C(C)(C)C)cc3)CC2)cc1,-13.9%
19,O=C(Nc1ccc2nc(SCC(=O)N3CCCc4ccccc43)sc2c1)c1ccccc1,17.1%
20,COc1ccc(N2CCN(C(=O)c3cccc(NC(=O)c4nsc5ccccc45)c3)CC2)cc1,20.7%
21,CCOC(=O)c1ccc(NC(=O)Nc2cc3c(cc2N2CCCC2)n(C)c(=O)n3C)cc1,-1.86%
22,COC(=O)c1cc(NC(=O)c2nn(C)c3c2COc2ccccc2-3)cc(C(=O)OC)c1,-27.7%
23,Nc1c(C(=O)Nc2ccc(F)c(F)c2)sc2nc(-c3ccncc3)ccc12,-17.3%
24,COc1cccc(CNC(=O)c2cc(C)nc3c2c(C)nn3-c2cccc(F)c2)c1,1.41%

row,SMILES,inhibition
1,O=C(Nc1cccnc1)c1cccc(S(=O)(=O)N2CCCCC2)c1,active: 52.6%
2,Cc1cc(C)cc(NC(=O)Cn2nnc(-c3nc(-c4ccncc4)no3)c2N)c1,-8.56%
3,Cc1cc2c(cc3c(SCc4nc(-c5ccccc5)oc4C)nnc(C)n32)o1,21.1%
4,Cc1ccc(N2CCN(S(=O)(=O)c3ccc(F)c(C(=O)Nc4ccc(Cl)cc4Cl)c3)CC2C)cc1 (stereo unspecified),-0.0823%
5,COc1cc(NC(=O)c2cc(C)nc3c2c(C)nn3-c2ccccc2Cl)cc(OC)c1,9.15%
6,Cc1ccc2cc3c(N)nn(C(=O)c4cccc(F)c4)c3nc2c1,-5.78%
7,CC(=O)c1ccc(NC(=O)c2ccc(-c3nc(CSc4ccccc4)c(C)o3)cc2)cc1,-8.99%
8,CCc1ccccc1NS(=O)(=O)c1ccc(NC(=O)N2CCCC2)cc1,15.5%
9,CCOc1ccc(-c2cc(-c3nc(-c4cc(OC)c(OC)c(OC)c4)no3)[nH]n2)cc1,-2.36%
10,Cc1cc(C)nc(NN2C(=O)/C(=C/c3ccc(O)cc3)SC2=S)n1,active: 44.7%
11,COc1cc(NC(=O)c2cc3ccccn3n2)cc(OC)c1OC,12.9%
12,COc1ccc(CCNC(=O)c2cnc3sc(N4CCCC4)nn3c2=O)cc1OC,-0.0853%
13,O=C(CN1C(=O)COc2ccc(S(=O)(=O)N3CCCCC3)cc21)NCc1ccc(Cl)cc1,3.76%
14,CN(C(=O)c1cc2c(s1)-c1ccc(Cl)cc1SC2)c1cccc(C(F)(F)F)c1,-3.76%
15,COC(=O)CSc1nnc(-c2ccc(S(=O)(=O)NCc3ccccc3Cl)cc2)o1,active: 33.3%
16,Cc1ccc(CNC(=O)c2nnn(CC(=O)Nc3cc(C)ccc3C)c2N)cc1,-4.27%
17,CSCCC(NS(=O)(=O)c1ccc2c(c1)oc(=O)n2C)C(=O)N1CCN(c2cccc(Cl)c2)CC1 (stereo unspecified),6.42%
18,COc1ccc2c(c1)NC(c1cccnc1)=NC(c1ccc(F)cc1)=N2,3.74%
19,NS(=O)(=O)c1ccc(NC(=O)CSc2nc3ccccc3n2-c2ccccc2)cc1,active: 31.5%
20,Cc1ccc(CN2C(=O)c3ccccc3Sc3ccc(C(=O)OCc4ccco4)cc32)cc1,14.1%
21,COc1ccc(Br)cc1CNC(=O)c1ccc2c(c1)N(Cc1ccc(C)cc1)CCS2,-12.2%
22,CC(C)(C)N(Cc1ccccc1)C(=O)CSc1nnc(CNc2ccc(F)cc2)o1,active: 31.6%
23,CCOCCCn1c(=N)c(C(=O)NCC2CCCO2)cc2c(=O)n3cccc(C)c3nc21 (stereo unspecified),5.08%
24,Cc1ccc(C)c(NC(=O)Cn2c(=O)n(Cc3ccccc3)c(=O)c3oc4ccccc4c32)c1,-9.61%

row,SMILES,inhibition
1,Cc1ccc(C)c(N2CCN(Cc3csc(C)c3)CC2)c1,7.21%
2,COC(=O)C1=C(c2ccccc2)c2ccccc2S(=O)(=O)N1CC(=O)Nc1ccccc1Cl,8.36%
3,COC(=O)C1CCN(S(=O)(=O)c2cc3c4c(c2)CC(=O)N4CCC3)CC1,-5.83%
4,Cc1cccc(NS(=O)(=O)c2ccc3c(c2)CCN3C(=O)C2CCC2)c1,10.6%
5,O=C(Nc1cccc(F)c1)c1ccc(-c2ccccc2)s1,-4.41%
6,COc1cc(Cl)cc2c1Sc1ccccc1/C2=C/CCN(C)C,active: 63.2%
7,CCCN(CCC)CCCNC(=O)Cn1cnc2sc(C)c(S(=O)(=O)N3CCC(C)CC3)c2c1=O,-10.1%
8,O=C(c1cccs1)N1CCCc2cc(NS(=O)(=O)c3ccc(F)cc3F)ccc21,-4.78%
9,O=C(Cn1c(=O)oc2cc(S(=O)(=O)NCc3ccccc3)ccc21)NCc1ccc(Cl)cc1,0.112%
10,Cc1ccc(-n2c(SCC(N)=O)nc3c(oc4ccccc43)c2=O)cc1C,1.64%
11,CCOc1cc(CNC(=O)Cn2c(-c3cccs3)cc3cc(F)ccc32)ccc1OC,7.39%
12,CC1Cc2cc(S(=O)(=O)N(Cc3ccccc3)C(C)C)ccc2N1C(=O)C1CCC1 (stereo unspecified),7.53%
13,Cc1ccccc1Nc1c(-c2cccs2)nc2cccc(C)n12,-2.68%
14,CCOc1ccc(/C=C/c2nc(C#N)c(NCCc3ccccc3)o2)cc1,-3.23%
15,O=C(CSc1nc2c([nH]c3ccccc32)c(=O)n1-c1ccc(Cl)cc1)NCC1CCCO1 (stereo unspecified),-3.63%
16,Cc1cc(C(=O)Nc2c(C)nc3ccccn3c2=O)ccc1[N+](=O)[O-],-1.94%
17,CCOC(=O)c1c(C)oc2nc(C)nc(NCc3ccccc3OC)c12,-15.7%
18,CC(=O)Nc1ccc(NC(=O)C(C)OC(=O)CCC2CCCC2)cc1 (stereo unspecified),active: 30.5%
19,COc1ccccc1NC(=O)Cn1c(=O)n(CCCCCC(=O)NCc2ccccc2)c(=O)c2sccc21,-9.47%
20,CC1CC(C)CN(CCOc2cccc3ccccc23)C1 (stereo unspecified),active: 55.1%
21,Clc1cccc(-c2nn3c(Cn4cnc5ccccc54)nnc3s2)c1,active: 33.9%
22,Cc1ccc(NC(=O)c2ccc(NC(=O)N3CCSc4ncccc43)cc2)c(C)c1,3.91%
23,COc1ccc(C)cc1-n1cnc2cc(C(=O)NC3CCCC3)ccc21,-4.73%
24,COc1cc(C(=O)Nc2nonc2-c2ccc(C)c(C)c2)cc(OC)c1OC,0.518%

row,SMILES,inhibition
1,COc1ccc(OC)c(CNC(=O)Cn2nc(C)c3c(C)n(-c4ccc(C)cc4)nc3c2=O)c1,active: 30%
2,Cn1cc(S(=O)(=O)c2ccccc2)c(=O)c2cc(F)c(N3CCCCCC3)cc21,16.2%
3,Cc1cc(C)cc(-n2c(SCC(=O)Nc3ccc4c(c3)OCCO4)nc3c([nH]c4ccccc43)c2=O)c1,-8.74%
4,COc1cc(CNCCN2CCOCC2)ccc1OCc1cccc(Cl)c1,active: 42.3%
5,COc1ccc(CNC(=O)CCc2nc(-c3ccc(C)cc3)no2)c(OC)c1,-7.26%
6,Cn1c(=O)n(C)c2cc(N3CCCCC3)c(NC(=O)c3ccc(C(C)(C)C)cc3)cc21,-7.55%
7,CCOC(=O)N1CCN(Cc2ccc3c(c2)OCO3)CC1,active: 80.9%
8,CC1=C(c2ccc(C)c(C)c2)S(=O)(=O)N=C1N1CCC(C(=O)NC(C)Cc2ccco2)CC1 (stereo unspecified),12.5%
9,COc1cccc(N2CCN(C(=O)c3ccc(NC(=O)c4nsc5ccccc45)cc3)CC2)c1,-24.4%
10,COc1ccc(NC(=O)c2ccco2)cc1NC(=O)COc1ccc(Cl)cc1C,11.6%
11,Cc1ccc(C(=O)NCc2ccc(F)cc2)cc1NC(=O)c1nsc2ccccc12,-8.28%
12,CCN(CC)CCNC(=O)c1sc2ncccc2c1-n1cccc1,-8.17%
13,Cc1ccc(NC(=O)CSc2nc(-c3ccccc3Cl)nc3cc(=O)[nH]n23)c(C)c1,5.72%
14,COC(=O)c1c(C)nn(-c2ccc(F)cc2)c1-n1cccc1,0.934%
15,CCc1cccc(Nc2ncnc3onc(-c4ccc(F)cc4)c23)c1,-24.5%
16,O=C(CSc1nc(-c2ccc(F)cc2)cc(C(F)(F)F)n1)NCCc1ccccc1,-1.63%
17,Cc1nnc(Sc2nc3c(c(=O)[nH]c(=O)n3C)n2CCc2ccccc2)s1,active: 50.5%
18,O=C(CSc1cn(CC(=O)N2CCCCC2)c2ccccc12)Nc1ccc(C(F)(F)F)cc1,-3.81%
19,COc1cccc(N2CCN(S(=O)(=O)c3ccc(-c4ccno4)cc3OC)CC2)c1,11.3%
20,COc1ccc(OC)c(C2NC(=O)NC(C)=C2C(=O)Nc2ccc(F)cc2)c1 (stereo unspecified),-9.06%
21,COc1ccc(CCNC(=O)CSc2n[nH]c(-c3ccccc3Cl)n2)cc1OC,-11.4%
22,COc1ccc(Cl)cc1NC(=O)CSC1=Nc2ccccc2C2=NC(CC(=O)NCc3cccs3)C(=O)N12 (stereo unspecified),-7.41%
23,O=C(NCc1ccccc1)c1cnc(N2CCCCC2)c2ccccc12,-22.2%
24,COc1ccc(Nc2c(-c3ccccn3)nc3ccc(Cl)cn23)cc1,21.8%
